In PubChem BioAssay AID1508624 (National Center for Advancing Translational Sciences (NCATS), 2021):
In all, about 48,000 compounds went through this assay and about 120 (0.25%) were called active. Another 4% or so got no clear call; they are omitted. Calls follow the shape of the dose curve; as a rule, active = well fitted activation curve with a large enough effect; inconclusive = small, poorly fitted or top-dose-only effect, or another doubt; inactive = no such curve, though single readings can be large or run the other way. The list shows a part of the results.

Test: Primary qHTS for Identification of Small Molecule Activators of Huntingtin-Antisense Promoter Activity; also: nearly all actives have a fitted effect of over 55% in size
Details: HEK293 HTT-AS promoter firefly luciferase reporter (activity 0% = vehicle and -100% = no light), 24 h; series mostly up to 57.5 µM; activity change, positive = activation: at the top concentration
Method in brief: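 Quantitative HTS used concentration series of up to 57.5 uM final on HEK293 luciferase reporter cells, 24 h at 37 degrees C. Readout was Dual-Glo firefly luminescence.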

Activity change, positive = activation, inactive:
Cc1nn(CC(=O)NC(C)c2ccccc2)c(=O)c2cc3occc3n12 (centres undefined) -10%, O=C(CSc1nc2c([nH]c3ccccc32)c(=O)n1-c1ccccc1)Nc1ccccc1C(F)(F)F -24.1%, NC(=O)COc1ccc(-c2noc(COc3ccc(Cl)cc3)n2)cc1 6.41%, CCOC(=O)C1=C(CN2CCN(c3ccc(Cl)cc3)CC2)NC(=O)NC1c1ccc(F)cc1 (centres undefined) -42.5%, COc1ccc2c(c1)CC(C(=O)Nc1c(C)cc(C)cc1C)CO2 (centres undefined) -10.4%, NS(=O)(=O)c1ccc(CCNC(=O)Cn2c(=O)c3cccn3c3ccc(F)cc32)cc1 -6.69%, COc1cccc(C(=O)NCC(c2ccc3c(c2)OCO3)N2CCN(C)CC2)c1 (centres undefined) -9.24%, Cc1[nH]c2ccccc2c1C1(O)C(=O)Nc2ccc(Cl)cc21 (centres undefined) -14.1%, COc1cc(CNCCCSc2nnnn2C)cc(Br)c1OC -6.44%, O=C(Nc1cccc(F)c1)C1CCN(c2nc3ccccc3nc2C(F)(F)F)CC1 -5.56%, Cc1ccc(-n2c3c(c(=O)[nH]c2=O)C(NC(=O)C(C)(C)C)(C(F)(F)F)C(=O)N3)cc1 (centres undefined) -9.47%, CCc1ccccc1-n1nnc(-c2nc(-c3ccccc3F)no2)c1C -27.6%, COc1ccc(OC)c(NC(=O)CCCOc2cc(=O)n(C)c3ccccc23)c1 -14.7%, COc1cccc(NC(=O)CSC2=Nc3ccccc3C3=NC(CCC(=O)NC4CCCCC4)C(=O)N23)c1 (centres undefined) -9.33%, CCc1ccc(-c2nc(CN3CCCC(C(=O)NCc4ccccc4Cl)C3)c(C)o2)cc1 (centres undefined) -53.6%, Cc1ccc2c(c1)-c1nc(-c3ccccc3)cc(-c3ccccc3)c1CO2 0.816%, C=C1C[C@H]2[C@@H]3C=C(C)C4=CC(=O)CC[C@]4(C)[C@H]3CC[C@]2(C)[C@@]1(OC(C)=O)C(C)=O -25%, Cc1nn2c(=O)cc(COC(=O)c3ccccc3NC(=O)C3CCCCC3)nc2s1 -5.86%, O=C(NCCc1csc(-c2cccc(F)c2)n1)c1ccco1 -0.574%, CCOc1ccc(N(CC)S(=O)(=O)N2CCCC(C(=O)NCc3ccccc3OCC)C2)cc1 (centres undefined) -27.5%, COc1cc(-c2cc3n(C)c(C)c(CCC(=O)NC4CCC(C)CC4)c(=O)n3n2)cc(OC)c1OC (centres undefined) 1.76%, COc1cc(C(=O)N(CCCN(C)C)c2nc3c(OC)cccc3s2)cc(OC)c1OC -0.332%, O=C(NC1CCCC1)c1ccc2c(c1)N(Cc1c(F)cccc1Cl)C(=O)c1ccccc1S2 -26.4%, COc1cccc(NC(=O)CN2C(=O)COc3ccc(S(=O)(=O)N4CCOCC4)cc32)c1 -4.02%, Cc1[nH]c2ccccc2c1C1(O)C(=O)N(Cc2ccccc2)c2ccc(Br)cc21 (centres undefined) -28%, CN(c1nnc(NC(=O)Nc2ccc(Br)cc2)s1)C1CCCCC1 18.8%, COc1ccccc1CNc1ncnc2onc(-c3ccc(Cl)cc3)c12 -35.6%, Cc1ccc(NC(=O)Nc2csc3c2CCCC3)c(C)c1 -6.43%, CCCS(=O)(=O)NCCc1sc2nc(-c3ccc(Cl)cc3)nn2c1C -13.6%, Cc1cc(C(=O)Nc2ccc(Cl)cc2)c2c(C)nn(-c3ccccc3)c2n1 -21.8%, NC(=O)C1CCN(C(=O)c2ccccc2NC(=O)c2nsc3ccccc23)CC1 18.7%, CCOC(=O)c1c(NC(=O)c2cc(=O)c3c(C)cc(C)cc3o2)sc(C)c1C -2%, O=C(NCCn1cc(SCc2ccc(C(F)(F)F)cc2)c2ccccc21)c1cccs1 -41.7%, COc1ccc(-n2nc3c(N4CCCC(C(=O)NCc5ccccc5C)C4)nnc(C)c3c2C)cc1 (centres undefined) -84.2%, COc1ccc2c(c1)c(CC(=O)OC/C=C(\C)CC/C=C(\C)CCC=C(C)C)c(C)n2C(=O)c1ccc(Cl)cc1 -2.03%, CNC(=O)C1CCC(Cn2c(=O)c3sccc3n(CC(=O)Nc3ccc(C)cc3C)c2=O)CC1 (centres undefined) -14.4%, Cc1cccc(NC(=O)CSc2nc(=O)n(CCN3CCOCC3)c3c2CCC3)c1 -2.92%, Cc1ccc(-n2ncc(C(=O)NCCN3CCc4ccccc4C3)c2C2CCN(C(=O)OC(C)(C)C)CC2)c(C)c1 0%, Cc1ccc2nc(-c3ccc(N4CCOCC4)cc3)c(Nc3ccccc3C)n2c1 19.2%, O=C(CN1C(=O)COc2ccc(S(=O)(=O)NC3CCCC3)cc21)Nc1ccc(F)c(Cl)c1 -45.3%, Cc1cccc(C(=O)NCc2nnc(SCC(=O)Nc3ccccc3F)n2-c2ccccc2)c1 -12.3%, CCc1cccc(-n2nnc(-c3nc(-c4ccc5c(c4)OCO5)no3)c2C)c1 -7.56%, CCOC(=O)c1cc(-c2ccc(OC)cc2)n(CCC(=O)NC2CCC(C)CC2)c1C (centres undefined) -15.9%, CCOc1ccc(-c2n[nH]c3c2C(c2cccs2)N(c2ccc(Br)cc2)C3=O)cc1 (centres undefined) -73.4%, COc1ccc(NC(=O)CSc2nc(-c3ccccc3)c3ccccc3n2)cc1 -7.74%, COc1ccc(N2CCN(C(=O)Nc3ccc(Cl)cc3)CC2)cc1 -15.5%, COc1ccc(S(=O)(=O)N2CCN(C(=O)c3cc(-c4ccc(Br)cc4)n[nH]3)CC2)cc1OC -56.8%, CCOc1ccc(N(CC(=O)NCc2ccc(C)cc2)S(=O)(=O)c2c(C)[nH]c(=O)[nH]c2=O)cc1 -9.54%, Brc1ccc(-c2csc(-c3nc(-c4ccc(Br)s4)cs3)n2)cc1 -4.65%, CCOC(=O)N1CCc2c(sc(NCc3ccc(N(C)C)cc3)c2C(=O)Nc2ccccc2OCC)C1 -38.7%, CCN1CCN(C(c2cccc(OC)c2)c2c(O)cc(C)n(Cc3ccco3)c2=O)CC1 (centres undefined) -11.7%, CCc1ccc(NC(=O)c2sc3nc(-c4ccccc4)cn3c2C)cc1 -4.38%, CCN(CC)CCNC(=O)Cn1cnc2sc(C)c(S(=O)(=O)N3CCN(c4ccccc4OC)CC3)c2c1=O 18%, O=C(Nc1ccccc1C(F)(F)F)N1Cc2ccccc2Oc2ncccc21 5.41%, COc1cccc(C2C=C(c3ccc(C)cc3)Nc3c(C(=O)Nc4ccc(F)cc4)cnn32)c1OC (centres undefined) -6.13%, CCOc1ccc(NC(=O)CSc2oc(-c3ccco3)nc2S(=O)(=O)c2ccc(Cl)cc2)cc1 -29.6%, CC(NC(=O)c1ccc(Cn2c(SCc3ccccc3)nc3cccnc32)cc1)c1ccccc1 (centres undefined) -0.804%, COc1ccc(CN(C(=O)c2ccc(OCC(C)C)cc2)C2CCS(=O)(=O)C2)cc1 (centres undefined) -16.2%, CC(CCc1ccccc1)NC(=O)Cn1ncc2c3ccccc3n(Cc3cccc(Cl)c3)c2c1=O (centres undefined) -1.44%
